From PMC4806292
Substitutions are numbered along the chain they refer to. Results are given in words; binding and its absence hold for the method and conditions named. Some results given as binding are weak or reduced against the parent protein; the word gives no strength. For part of these data: Sequences can lack the tags named with a protein. One block for each substance: values may come before it.

Amino acid sequences for entries named in this document (tags omitted). A change or cut given only in a name is not applied to a line headed by its entry.
UniProt Q9H3P7: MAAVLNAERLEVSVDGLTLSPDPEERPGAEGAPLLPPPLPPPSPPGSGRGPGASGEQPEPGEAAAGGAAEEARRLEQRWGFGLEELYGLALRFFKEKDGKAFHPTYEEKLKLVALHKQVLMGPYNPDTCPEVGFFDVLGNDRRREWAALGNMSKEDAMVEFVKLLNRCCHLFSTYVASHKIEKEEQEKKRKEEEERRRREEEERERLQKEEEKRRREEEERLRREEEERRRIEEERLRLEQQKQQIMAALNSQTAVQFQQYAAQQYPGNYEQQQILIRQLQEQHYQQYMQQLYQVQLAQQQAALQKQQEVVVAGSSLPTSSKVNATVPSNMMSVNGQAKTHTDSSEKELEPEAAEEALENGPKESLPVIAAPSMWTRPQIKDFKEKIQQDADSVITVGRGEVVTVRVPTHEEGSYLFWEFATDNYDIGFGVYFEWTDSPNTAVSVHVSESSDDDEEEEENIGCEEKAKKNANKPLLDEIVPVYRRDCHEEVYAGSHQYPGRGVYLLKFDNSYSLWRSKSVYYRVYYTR

Experiments:
[1] = target: N-terminal His6GB1-tagged PI4KB (residues 423-522 removed) (human) (UniProt Q9UBF8); assay: pull-down; Ni-NTA sepharose beads, one partner with N-terminal His6GB1 tag immobilised, both partners 1 μM in 200 μL 30 mM Tris pH 8, 200 mM NaCl, 10 mM imidazole, 1 mM TCEP; 30 min at 4 °C; SDS gels stained with Coomassie Blue; both purified
[2] = target: PI4KB, untagged (residues 423-522 removed) (human) (UniProt Q9UBF8); assay: AUC; sedimentation velocity, full-length proteins alone and as complex, 5 μM (both proteins); 10 mM Tris pH 8, 200 mM NaCl, 3 mM β-mercaptoethanol, 20 °C, 48000 rpm; c(s) model; both purified
[3] = target: ACBD3 Q domain (residues 241-308) (human) (UniProt Q9H3P7); assay: AUC; sedimentation velocity, ACBD3 Q domain and PI4KB N-terminal region, 35 μM (both proteins); 10 mM Tris pH 8, 200 mM NaCl, 3 mM β-mercaptoethanol, 20 °C, 48000 rpm; c(s) model; both purified
[4] = target: T1, His6GB1-tagged PI4KB V55A mutant (human) (UniProt Q9UBF8); assay: pull-down; Ni-NTA sepharose beads, one partner with N-terminal His6GB1 tag immobilised, both partners 1 μM in 200 μL 30 mM Tris pH 8, 200 mM NaCl, 10 mM imidazole, 1 mM TCEP; 30 min at 4 °C; SDS gels stained with Coomassie Blue; both purified
T1 sequence: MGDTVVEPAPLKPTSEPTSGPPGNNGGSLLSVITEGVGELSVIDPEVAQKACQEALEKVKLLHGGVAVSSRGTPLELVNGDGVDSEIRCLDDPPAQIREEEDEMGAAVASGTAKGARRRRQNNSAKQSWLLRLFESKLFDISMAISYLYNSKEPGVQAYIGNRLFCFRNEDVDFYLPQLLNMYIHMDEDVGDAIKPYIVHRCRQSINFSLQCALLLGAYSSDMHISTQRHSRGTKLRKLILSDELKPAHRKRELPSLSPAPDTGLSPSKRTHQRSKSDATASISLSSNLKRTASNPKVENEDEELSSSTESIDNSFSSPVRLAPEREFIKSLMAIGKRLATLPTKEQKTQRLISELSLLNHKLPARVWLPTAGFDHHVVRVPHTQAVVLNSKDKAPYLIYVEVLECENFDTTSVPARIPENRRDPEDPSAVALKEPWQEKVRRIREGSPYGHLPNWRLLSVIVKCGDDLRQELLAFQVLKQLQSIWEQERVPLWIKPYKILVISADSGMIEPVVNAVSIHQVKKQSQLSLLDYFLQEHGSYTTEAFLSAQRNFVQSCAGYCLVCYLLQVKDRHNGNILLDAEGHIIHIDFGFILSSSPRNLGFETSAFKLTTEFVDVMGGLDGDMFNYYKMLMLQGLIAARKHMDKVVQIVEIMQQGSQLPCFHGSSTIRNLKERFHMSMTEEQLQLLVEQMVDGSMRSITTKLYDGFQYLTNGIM

[5] = target: T2, His6GB1-tagged PI4KB L56A mutant (human) (UniProt Q9UBF8); assay: as above
T2 sequence: T1 sequence with A55V, L56A

[6] = target: T3, His6GB1-tagged PI4KB I43A mutant (human) (UniProt Q9UBF8); assay: as above
T3 sequence: T1 sequence with I43A, A55V

Substance: ACBD3 F258A mutant, untagged (from UniProt Q9H3P7 1-528)
binding [1]: no binding (tested: 1 μM)

Substance: Acyl-coenzyme A binding domain containing protein 3 (ACBD3), full length, untagged (from UniProt Q9H3P7 1-528)
binding [4]: no binding (tested: 1 μM) | binding [5]: no binding (tested: 1 μM) | binding [6]: no binding (tested: 1 μM)

Substance: ACBD3 Y288A mutant, untagged (from UniProt Q9H3P7 1-528)
binding [1]: no binding (tested: 1 μM)

More lines, now with the values ahead:

binding [1]: no binding (tested: 1 μM)
Substance: ACBD3 H284A mutant, untagged (from UniProt Q9H3P7 1-528)

binding [2]: no binding (tested: 5 μM)
Substance: PI4KB, untagged (residues 423-522 removed) (from UniProt Q9UBF8 1-816) (enzyme)

binding [3]: no binding (tested: 35 μM)
Substance: ACBD3 Q domain (residues 241-308) (from UniProt Q9H3P7 241-308) (domain or fragment)

binding [1]: binds weakly
Substance: ACBD3 Y285A mutant, untagged (from UniProt Q9H3P7 1-528)
